The values that follow come from PubChem BioAssay AID360 (National Center for Advancing Translational Sciences (NCATS), 2006).

Screen size: about 48,000 compounds; about 550 (1.1%) were called active. Another 4% or so got no clear call; they are omitted. Rule as the data show it: active = potency below about 15 µM; inconclusive = mostly about 16 µM to 33 µM; inactive = weaker than that. The list shows a part of the results.
Potency is read from the fitted curve at half-maximal effect.

This assay deals with Lysosomal acid glucosylceramidase (Homo sapiens) (UniProt P04062). Briefly: Glucocerebrosidase.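 Also: the screen sought inhibitors.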 The conditions noted are these: purified enzyme, resorufin glucoside fluorescence (screen aimed at inhibitors), 20 min. The essentials: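 Normal human glucocerebrosidase (0.2 nM final) was assayed with resorufin β-D-glucopyranoside (30 uM final) in 50mM citric acid/KH2PO4, 10mM sodium taurocholate, 0.01% tween-20, pH 5.9. Compounds were titrated; fluorescence (Ex 548, Em 600) read after 20 min at RT.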
Sequence of UniProt P04062 (P04062 whole entry, looked up): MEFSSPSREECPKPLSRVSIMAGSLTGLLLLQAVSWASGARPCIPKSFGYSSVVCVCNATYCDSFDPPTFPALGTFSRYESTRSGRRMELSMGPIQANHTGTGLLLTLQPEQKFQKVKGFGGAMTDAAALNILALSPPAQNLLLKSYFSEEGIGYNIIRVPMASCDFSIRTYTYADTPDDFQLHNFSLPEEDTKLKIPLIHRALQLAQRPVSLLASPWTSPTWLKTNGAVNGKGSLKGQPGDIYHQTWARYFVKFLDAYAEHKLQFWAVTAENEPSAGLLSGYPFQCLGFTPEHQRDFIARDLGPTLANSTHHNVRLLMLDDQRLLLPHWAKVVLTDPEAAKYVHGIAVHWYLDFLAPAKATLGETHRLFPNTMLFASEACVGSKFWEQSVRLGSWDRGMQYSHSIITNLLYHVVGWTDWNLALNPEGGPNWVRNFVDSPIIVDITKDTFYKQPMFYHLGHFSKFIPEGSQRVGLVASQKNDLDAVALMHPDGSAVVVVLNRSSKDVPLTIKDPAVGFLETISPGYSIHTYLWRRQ
`CCOC(=O)C1=C(c2ccccc2)OC(N)=C(C#N)C1c1ccco1` (stereo not given): the Potency is inactive: > 76.9 µM. As for `Cc1ccc(CNC(=O)C2C3C=CC4(CN(Cc5cccnc5)C(=O)C24)O3)cc1` (stereo not given), the figure is inactive: > 76.9 µM; as for `O=C(Cn1c(SCC(=O)N2CCCc3ccccc32)nc2ccccc21)N1CCCC1`, inactive: > 76.9 µM. In the case of `COc1ccc2cc3cc(C(=O)Nc4ccc5c(c4)OCO5)oc3nc2c1`, the Potency was inactive: > 76.9 µM. As for `O=C(Cc1coc2ccc3ccccc3c12)N1CCCC1`, the figure is inactive: > 76.9 µM; as for `Cc1ccn(CC(=O)O)c(=O)c1`, inactive: > 76.9 µM. As for `Nc1ccc(-c2cc(N)n(-c3ccccc3)n2)cc1`, the figure is inactive: > 76.9 µM; as for `Cn1c(SCc2ccon2)nc2ccccc2c1=O`, inactive: > 76.9 µM.

Regarding `COC(=O)C1Cc2c([nH]c3ccccc23)CN1` (stereo not given), the Potency was inactive: > 76.9 µM. For `CC1CCN(C(=O)C2CCCN(S(C)(=O)=O)C2)CC1` (stereo not given) the value was inactive: > 76.9 µM. `Cn1c(SCC(=O)NCc2cccs2)nnc1-c1ccc(S(=O)(=O)N2CCCC2)cc1`: the Potency is inactive: > 76.9 µM. On to `O=C(NCCc1ccc2c(c1)OCCO2)c1cc2ccccc2o1`, for which the Potency is inactive: > 76.9 µM.

Take `O=S(=O)(Nc1ccc2nc(-c3ccc(Br)o3)[nH]c2c1)c1ccccc1`: the Potency is inactive: > 76.9 µM. Regarding `c1ccc(-n2c(Cc3cn4ccsc4n3)nnc2N2CCOCC2)cc1`, the Potency is inactive: > 76.9 µM.

Turning to `Cc1ccc(S(=O)(=O)c2nc(-c3ccccc3)oc2NCc2cccnc2)cc1`, the Potency was inactive: > 76.9 µM. For `c1csc(-c2ccc3ccccc3n2)c1`, the Potency was inactive: > 76.9 µM.

With `CCCC(=O)c1cc(F)c(N2CCOCC2)cc1C`, the Potency was inactive: > 76.9 µM.

With `CCCCNC(=O)c1ccc(N2CCOCC2)c(NS(=O)(=O)c2ccc(OC)cc2)c1`, the Potency is inactive: > 76.9 µM. For the molecule `Cn1c(Cc2ccccc2)nnc1SCC(=O)Nc1ccc2c(c1)OCCO2`, the Potency was inactive: > 76.9 µM. For the molecule `CCC(C)(C(=O)NC1CCCCC1)N(C)C(=O)c1ccccn1` (stereo not given), the Potency is inactive: > 76.9 µM.

Take `COc1ccc(NC(=O)Nc2cc(C)ccc2OC)cc1`: the Potency was inactive: > 76.9 µM.

For `Nc1c(C(=O)NCCc2ccccc2)nnn1Cc1ccccc1`, the Potency was inactive: > 76.9 µM. As for `Cc1noc(C)c1COC(=O)CCOc1ccccc1`, the Potency was inactive: > 76.9 µM. As to `CCCOc1ccc(OCCSc2ncccn2)cc1`, the Potency is inactive: > 76.9 µM.

As for `CCCc1nnc(SCC(=O)N2CCOCC2)n1CCCOC`, the Potency is inactive: > 76.9 µM.

Turning to `O=C(OCC(=O)c1ccc(S(=O)(=O)N2CCCC2)cc1)C1=COCCO1`, the Potency is inactive: > 76.9 µM.

As for `CCOC(=O)c1c(C)nc2c3ccccc3ccn12`, the Potency is inactive: > 76.9 µM. As for `CCC(CC)c1nnc(NS(=O)(=O)Cc2ccccc2)s1`, the Potency is inactive: > 76.9 µM.

In the case of `COc1cccc(CC(=O)Nc2nccs2)c1`, the Potency was inactive: > 76.9 µM.

`COCCCNc1nc2c([nH]1)c(=O)[nH]c(=O)n2C`: the Potency was inactive: > 76.9 µM. As for `CCn1cc(Br)c(C(=O)Nc2ccc(OC)cc2)n1`, the Potency is inactive: > 76.9 µM.

As to `COc1cc(C2c3sc(=O)[nH]c3SC3C4CCC(C4)C23)ccc1O` (stereo not given), the Potency is inactive: > 76.9 µM. Consider `Cc1cccc(OCc2nnc(SCn3nnc4ccccc4c3=O)o2)c1`, for which the Potency was inactive: > 76.9 µM. For `O=C(Nc1ccc2oc(-c3ccncc3)nc2c1)c1cccs1` the value was inactive: > 76.9 µM; for `CC1(C)NC(=O)N(CN2C(=O)NC(C)(C)C2=O)C1=O`, inactive: > 76.9 µM. As for `CC(C)CC1(C)NC(=O)N(CCN2C(=O)c3ccccc3C2=O)C1=O` (stereo not given), the figure is inactive: > 76.9 µM; as for `FC(F)(F)c1cc(-c2ccccc2)nc(N2CCCCC2)n1`, inactive: > 76.9 µM. Regarding `Cc1cccc(Cn2c(N3CCN(c4ccccc4)CC3)nc3c2c(=O)n(C)c(=O)n3C)c1`, the Potency was inactive: > 76.9 µM. For `Cc1ccc(-c2nnc(SCC(=O)Nc3nc4c(s3)CCCC4)n2C)cc1` the value was inactive: > 76.9 µM; for `O=C(Cn1nc(-c2ccccc2)ccc1=O)NCc1ccc2c(c1)OCO2`, inactive: > 76.9 µM; for `COc1ccc(S(=O)(=O)N2Cc3ccccc3CC2C(=O)Nc2nccs2)cc1OC` (stereo not given), inactive: > 76.9 µM. For `COc1cccc(C2=NOC(C(=O)NC3CCCCC3)C2)c1` (stereo not given) the value was inactive: > 76.9 µM. Consider `O=C(OCC(=O)N1CCOCC1)c1ccc2c(c1)OCCO2`, for which the Potency is inactive: > 76.9 µM.

On to `Cc1c(Cl)cccc1N1C(=O)CC(N(O)c2ccccc2)C1=O` (stereo not given), for which the Potency was inactive: > 76.9 µM. In the case of `CCSc1nc(-c2ccco2)ccc1C#N`, the Potency is inactive: > 76.9 µM. For `CCN(CC)c1ccc(NC(=O)CN2CCN(CC(=O)Nc3ccc(F)cc3)CC2)cc1` the value was inactive: > 76.9 µM. With `COC(=O)c1ccc(CN2CCN(Cc3ccc(C(=O)OC)o3)CC2)o1`, the Potency is inactive: > 76.9 µM. With `c1ccc(-c2nnc(CSc3nc4ccccc4[nH]3)o2)cc1`, the Potency is inactive: > 76.9 µM.

Consider `COc1ccc(C(=O)Nc2cccc(N(C)S(C)(=O)=O)c2)cc1OC`, for which the Potency is inactive: > 76.9 µM.

With `CCOC(=O)CSC1=C(C#N)C(c2ccccc2OCC)C(C(=O)OCC)C(=O)N1` (stereo not given), the Potency was inactive: > 76.9 µM. For `Cc1cc(NC(=O)Nc2cc(C)nn2-c2ccccc2)n(-c2ccccc2)n1` the value was inactive: > 76.9 µM; for `OCc1nc2ccccc2n1CC(O)COc1ccccc1` (stereo not given), inactive: > 76.9 µM.

Take `COC(=O)CSc1nnc(-c2ccc(OC)cc2OC)o1`: the Potency is inactive: > 76.9 µM. For `COc1ccc(CCNC(=O)C2CCCCC2C(=O)O)cc1OC` (stereo not given) the value was inactive: > 76.9 µM. With `CN(c1ccc(F)cc1)S(=O)(=O)c1ccc2[nH]cc(C(=O)O)c(=O)c2c1`, the Potency is inactive: > 76.9 µM. As for `O=C(c1ccncc1)N1CCN(C(=O)c2ccncc2)CC1`, the figure is inactive: > 76.9 µM; as for `COC(=O)c1cc(=O)nc2sc3ccccc3n12`, inactive: > 76.9 µM; as for `c1ccc(-c2oc3ncnc(N4CCOCC4)c3c2-c2ccccc2)cc1`, inactive: > 76.9 µM. For the molecule `O=C(c1nc2nc(-c3ccc(Cl)cc3)cc(C(F)(F)F)n2n1)N1CCOCC1`, the Potency is inactive: > 76.9 µM.

Turning to `Cc1c(NC(=O)c2cc(-c3ccco3)on2)c(=O)n(-c2ccccc2)n1C`, the Potency was inactive: > 76.9 µM.
